# Results as given in PubChem BioAssay AID1240 (Sanford-Burnham Center for Chemical Genomics, 2008).
# The whole screen tested about 50,000 compounds, of which about 800 (1.6%) showed an effect of 50% or more. This is one part of the list.
# Molecular target: Bcl-2-like protein 10 (Homo sapiens) (UniProt Q9HD36)
# Experiment: TR3 peptide-Bcl-B binding displacers, biochemical primary FP assay, phenotype converters (AID 1240);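 note: 0% = Bcl-B with tracer peptide and DMSO and 100% = tracer peptide lacking Bcl-B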
# Settings: GST-Bcl-B / FITC-TR3 peptide fluorescence polarization; stronger effect = higher value; compound at 3.75 mg/L
# UniProt Q9HD36, sequence (Q9HD36 whole entry, looked up): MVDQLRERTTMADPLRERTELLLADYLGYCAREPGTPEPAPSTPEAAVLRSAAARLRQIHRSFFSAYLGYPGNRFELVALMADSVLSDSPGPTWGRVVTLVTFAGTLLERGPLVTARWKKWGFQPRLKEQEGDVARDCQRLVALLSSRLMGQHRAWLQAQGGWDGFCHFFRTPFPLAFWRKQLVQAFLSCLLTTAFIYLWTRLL
row,SMILES,displacement [%]
1,Cc1nnc(SCc2ccc(C(=O)O)cc2)s1,-0.3
2,CCOC(=O)c1c(N)sc2c1CCN(C(=O)OCC)C2,0.7
3,Cc1ccc(C(=O)c2cccc(NC(=O)CC(C)C)c2)cc1C,12.1
4,COc1cccc(N2C(=O)/C(=C/c3cc(OC)c(OC)c(OC)c3)SC2=S)c1,41.6
5,COC(=O)NC(NC(=O)OC)c1ccc(Br)cc1,4.2
6,O=C(NCc1cccs1)c1cc2nc(-c3ccc([N+](=O)[O-])cc3)cc(C(F)(F)F)n2n1,3.7
7,O=C(CSc1nc2ccccc2s1)NCC(=O)c1ccccc1,-1.9
8,Cc1c(Cl)cccc1-c1ccc(C(=O)O)o1,-0.1
9,Cc1ccc(S(N)(=O)=O)cc1NC(=O)COc1ccccc1,1.8
10,Cc1cc2nc(-c3ccc(NC(=O)c4ccco4)cc3O)oc2cc1C,0.3
11,O=C(Cc1ccc(Br)cc1)NCC1CCCO1 (centres undefined),10.2
12,COc1cc(C(=O)Nc2cccc(-c3cc4ccccc4oc3=O)c2)cc(OC)c1OC,3.9
13,COc1ccc(NC(=O)c2cccc(F)c2)cc1,-4.5
14,Cc1cc(C)c2nc3s/c(=C/c4ccc5c(c4)n(C)c(=O)n5C)c(=O)n3c2c1,-2.5
15,COc1ccc2nc(NC3=NC(c4ccccc4)CC(=O)N3)nc(C)c2c1 (centres undefined),0.3
16,Cc1nnc(NC(=O)c2cc(C(F)(F)F)cc(C(F)(F)F)c2)s1,-8.9
17,CCCCOc1ccc(/C=C2\N=C(c3ccc(Cl)cc3)OC2=O)cc1,14.7
18,CC(=O)CC(=O)Nc1c(C)cc(C)cc1C,-3.5
19,CCOc1ccccc1NC(=O)c1c(NC(=O)c2ccccc2Br)sc2c1CCC(C)C2 (centres undefined),-5.8
20,O=C(Nc1ccc(Cl)cc1)C(=O)NC1CCCC1,10.3
21,CCC1(c2ccccc2)C(=O)N(C(=O)c2ccccc2)C(=O)N(C(=O)c2cc(OC)c(OC)c(OC)c2)C1=O (centres undefined),6.3
22,CN1CCN(C2=NC(=O)/C(=C/c3ccc(Cl)cc3)S2)CC1,-21.4

row,SMILES,displacement [%]
1,COC(=O)C1=C(N)OC2=C(C(=O)CCC2)C1c1ccc(OC)cc1 (centres undefined),-0.3
2,COC(=O)c1c(NC(=O)C(C)C)sc2c1CCCC2,-2.6
3,C=C(C)COc1ccc2c(CC)cc(=O)oc2c1,-1.3
4,O=C(Nc1ccccc1Cl)c1ccc(S(=O)(=O)N2CCOCC2)cc1,0.9
5,Cc1ccc(-n2c(C)cc(/C=N/NC(N)=O)c2C)cc1C,0.9
6,O=C(CN(c1cccc([N+](=O)[O-])c1)S(=O)(=O)c1ccccc1)Nc1ccccc1Cl,11.1
7,COc1ccccc1CNS(=O)(=O)c1ccc(C)cc1,-11
8,CC1=C(C(=O)OC(C)C)C(c2ccc(O)c([N+](=O)[O-])c2)C2=C(CC(C)(C)CC2=O)N1 (centres undefined),-6
9,CC1(C)CC(=O)C(C2(C3C(=O)CC(C)(C)CC3=O)C(=O)Nc3ccccc32)C(=O)C1,12.1
10,COc1cc2c(cc1OC)C(=C(Cl)Cl)NC(C)(C)C2,-6
11,O=C1N=c2ccc(Br)cc2=C1c1sc(NS(=O)(=O)Cc2ccccc2)nc1O,11.9
12,CCOC(=O)c1c(-c2ccc(C)cc2)csc1NC(=O)C1CCCCC1C(=O)O (centres undefined),-5.3
13,O=C(CSCC(=O)Nc1ccc(F)c([N+](=O)[O-])c1)Nc1ccccc1,-12.3
14,CCCC(=O)Nc1cc(-c2nc3cc(Cl)ccc3o2)ccc1C,-2.5
15,O=C(Nc1ccc(Cl)c(Cl)c1)Nc1ncccc1Cl,-4
16,O=C(NNc1ccc([N+](=O)[O-])cc1)c1ccc(Cl)cc1Cl,-10.3
17,COc1ccc(C(=O)Nc2ccccc2CO)cc1OC,1
18,Cc1cccc(OCC(=O)NCc2ccco2)c1,-8
19,S=C(NCC12CCC3CC(CC(C3)C1)C2)Nc1ccccc1,-2.6
20,CC1=C(C(=O)OCCc2ccccc2)C(c2ccccc2)NC(=O)N1 (centres undefined),3.9
21,COCCCNC(=O)c1cc(C(=O)OC)cc([N+](=O)[O-])c1,15.6
22,Cc1cc(Cl)ccc1NC(=O)c1ccc(N(Cc2ccccc2)S(C)(=O)=O)cc1,10.6

row,SMILES,displacement [%]
1,O=C(Cc1ccc(-c2ccccc2)cc1)Nc1cc(Cl)ccc1Cl,-5.1
2,COc1ccc(Cl)cc1C(=O)Nc1cccc(C)n1,3.5
3,CCOC(=O)c1c(C)oc2c(F)c(C(F)(F)F)c(F)c(F)c12,13.9
4,CCc1ccccc1N(CC(=O)Nc1ccccc1C(=O)OC)S(C)(=O)=O,-0.1
5,CC1CC(=O)NN=C1c1ccc(N)c(N)c1 (centres undefined),3.9
6,CCC(CC)NCc1cc(Br)ccc1OC,11.9
7,CCOc1cccc(/C=N\N2CCN(c3ccccc3OC)CC2)c1O,-4.6
8,O=C(Nc1ccc(O)cc1)c1cccc(N2C(=O)c3cccc([N+](=O)[O-])c3C2=O)c1,11.4
9,CCOC(=O)CSc1nc2sc3c(c2c(=O)n1CC)CC(C)(C)OC3,2.9
10,O=c1[nH]cc(N=Cc2cc(Br)ccc2O)c(=O)[nH]1,42.9
11,Cc1cc(C)c(C(N)=O)c(Nc2ccc(C3CCCCC3)cc2)n1,-3.9
12,COC(=O)C(=O)c1c[nH]c2ccccc12,12
13,O=C1C(=O)N(Cc2ccccc2)C(c2ccc(Br)cc2)/C1=C(/O)c1ccccc1 (centres undefined),4.7
14,O=c1oc(-c2ccco2)nc2ccccc12,15.9
15,CCC(=NCCCn1ccnc1)c1c(C(F)(F)F)[nH]n(-c2nc3ccccc3s2)c1=O,-6.7
16,CN(C)/C=C/C=C/C(=O)c1cccc(C(=O)/C=C/C=C/N(C)C)c1O,-19.7
17,COc1ccc(OCC(=O)Nc2ccc3c(c2)OCO3)cc1,2.4
18,CC1=C(C(=O)Nc2cccc(Cl)c2C)C(c2ccc(Cl)cc2)NC(=S)N1 (centres undefined),5.6
19,CCCn1c(=O)c(C(=O)Nc2cccc(C)c2)c(O)c2ccccc21,2.6
20,Cc1ccc(C(=O)N2CCN(c3ccc([N+](=O)[O-])cc3Cl)CC2C)o1 (centres undefined),16.3
21,CC12c3ccccc3C(C)(c3ccccc31)C1C(=O)N(c3ccc(C(=O)O)cc3)C(=O)C12 (centres undefined),14.2
22,O=C(CSc1nc2ccc([N+](=O)[O-])cc2[nH]1)c1ccc2ccccc2c1,13

row,SMILES,displacement [%]
1,CCc1ccc(-c2cc(C(=O)N3CCN(C)CC3)c3ccccc3n2)cc1,-7.2
2,Cc1cc(S(N)(=O)=O)ccc1NC(=O)c1sc2ccccc2c1Cl,-3
3,Cc1ccc(S(=O)(=O)N(C)C)c(C)c1N1CCc2cnn(S(=O)(=O)c3ccc(Cl)cc3)c21,31.1
4,COC(=O)c1ccc(NC(=O)C2c3ccccc3Oc3ccccc32)cc1,-4
5,O=C(Nc1ccccc1C(=O)Nc1ccc(Cl)cc1)c1ccco1,-2.4
6,O=c1[nH]c(/C=C/c2ccc3c(c2)OCO3)nc2ccccc12,31.8
7,Cc1ccc(Cl)cc1NC(=O)CN(c1cccc([N+](=O)[O-])c1)S(=O)(=O)c1ccccc1,15.2
8,COc1ccccc1N1CCN(/N=C/c2cccc(C)c2)CC1,8.5
9,Cc1ccc(S(=O)(=O)N2CCCC(C)C2)cc1 (centres undefined),-11
10,COC(=O)CCC(=O)Nc1ccc([N+](=O)[O-])cc1C,14.7
11,COc1ccccc1CN1CCN(C(=O)c2cccs2)CC1,1.2
12,CCOc1ccc(NC(=O)/C=C/c2ccc(C)o2)cc1,13.3
13,O=C(COC(=O)c1ccc(Cl)c([N+](=O)[O-])c1)c1ccc(Cl)cc1,3.3
14,COc1ccc(N2C(=O)CC(NC3CCCC3)C2=O)cc1 (centres undefined),-10.9
15,O=c1c2ccccc2c2c1nc1c(=O)c3ccccc3c(=O)n12,2.4
16,CCCC(=O)Nc1ccc(NC(=O)c2ccc(C)c(C)c2)cc1,-4
17,CCN(CC)C(=O)c1ccccc1NC(=O)c1ccccc1Cl,4.5
18,COc1ccc(CCNC(=O)CCN2C(=O)c3ccccc3C2=O)cc1OC,-7.3
19,Cc1ccc(OCC(=O)N/N=C\c2cc(Cl)cc(Br)c2O)cc1,7.2
20,CC(=O)Nc1cccc(-c2nc3ccccc3s2)c1,10.3
21,Cc1ccc(-n2[nH]c(C)c(C=Nc3ccc(S(=O)(=O)Nc4nccs4)cc3)c2=O)cc1C,-0.2
22,Cc1ccc2[nH]c(O)c(N=Nc3ccc([N+](=O)[O-])cc3)c2c1,-0.9

row,SMILES,displacement [%]
1,Cc1[nH]c2ccccc2c1/C=N/Nc1ccc([N+](=O)[O-])cc1,-23.3
2,COc1ccc(CN2CCN(Cc3cccn3C)CC2)c(OC)c1OC,5.4
3,O=C(Nc1ccc(Cl)cn1)S(=O)(=O)c1ccccc1,8.3
4,Cc1cccc(OCC(=O)O/N=C(\N)Cc2cccc3ccccc23)c1,45.6
5,O=C(N/N=C/c1cccc([N+](=O)[O-])c1)C(Oc1ccccc1)Oc1ccccc1,11.1
6,Cc1cc(C)c(S(=O)(=O)NCc2ccc3c(c2)OCO3)c(C)c1,-5.9
7,O=C(CCn1c2ccccc2c2ccccc21)N/N=C/c1ccccc1,6.9
8,Cc1ccc(NC(=O)c2cccc(F)c2)c(C)c1,10.4
9,O=C1C(=O)N(c2cccnc2)C(c2ccc3c(c2)OCO3)/C1=C(\O)c1ccc(Cl)cc1 (centres undefined),-18.1
10,O=C(COc1ccccc1)Nc1ccc(Cl)c(-c2nc3ccccc3s2)c1,15.4
11,COc1cc(CN=Cc2c(O)n(-c3cc(OC)ccc3OC)c(=O)[nH]c2=O)cc(OC)c1,1.6
12,CC1=C(C(=O)OCc2ccccc2)C(c2cccc(F)c2)C2=C(CCCC2=O)N1 (centres undefined),6.3
13,Cc1ccccc1CN1CCN(C2CCCC2)CC1,-23.3
14,CCOc1ccccc1NC(=O)c1c(NC(=O)c2ccccc2F)sc2c1CCCC2,-2.4
15,Cc1ccc(OCC(=O)O/N=C(\N)c2ccc([N+](=O)[O-])cc2)cc1,12.4
16,O=C(NCCCCc1ccccc1)C1CC(=O)N(c2ccc(Br)cc2)C1 (centres undefined),1.1
17,COc1cccc(N2C(=O)C(=O)/C(=C(\O)c3ccccc3)C2c2ccc(Cl)cc2)c1 (centres undefined),4.9
18,CC1(C)CC(=O)C2=C(C1)c1c(ccc3ccccc13)NC2c1cc2c(cc1Cl)OCO2 (centres undefined),10.5
19,CCOc1cc(/C=C2\SC(=S)NC2=O)ccc1OS(=O)(=O)c1ccc([N+](=O)[O-])cc1,10.8
20,COc1ccc(C2/C(=C(\O)c3ccccc3)C(=O)C(=O)N2CCCC(=O)O)cc1OC (centres undefined),1.7
21,CCOC(=O)COc1ccc(/C=C2/C(=O)NN(c3ccc(I)cc3)C2=O)cc1OC,4
